Out of some 410,000 compounds screened, about 6,400 (1.6%) were called active. Inconclusive means that the source gave no clear call. Such entries were picked first, then a sample of the others. The call rests on the fitted dose curve; in most records, active means well fitted inhibition curve with a large enough effect; inconclusive means small, poorly fitted or top-dose-only effect; inactive means no such curve, though single readings can be large or run the other way. Potencies of inconclusive entries are left out as doubtful fits.
Each compound was assayed against Glucagon-like peptide 1 receptor (Homo sapiens) (UniProt P43220) (assay: qHTS of GLP-1 Receptor Inverse Agonists (Inhibition Mode)). Conditions: HEK293 GLP-1R CRE-luciferase, luminescence, 24 h, GLP-1R form is constitutively active; activity change, negative = inhibition: at 38.3 µM (top of the series) unless noted.
UniProt P43220, sequence (P43220 whole entry, looked up): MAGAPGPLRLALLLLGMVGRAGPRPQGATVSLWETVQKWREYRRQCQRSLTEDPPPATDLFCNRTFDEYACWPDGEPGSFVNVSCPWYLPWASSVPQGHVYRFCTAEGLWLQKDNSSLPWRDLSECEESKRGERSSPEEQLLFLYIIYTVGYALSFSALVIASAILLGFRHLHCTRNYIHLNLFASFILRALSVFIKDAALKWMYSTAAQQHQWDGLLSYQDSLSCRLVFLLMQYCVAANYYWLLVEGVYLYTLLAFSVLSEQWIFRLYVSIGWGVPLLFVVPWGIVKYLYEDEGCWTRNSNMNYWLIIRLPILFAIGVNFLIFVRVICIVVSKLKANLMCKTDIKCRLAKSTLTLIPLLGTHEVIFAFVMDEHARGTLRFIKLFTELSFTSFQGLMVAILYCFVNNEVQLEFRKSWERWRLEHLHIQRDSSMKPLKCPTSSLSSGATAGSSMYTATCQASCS
Method in brief: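 HEK293 cells stably co-expressing a cAMP-responsive luciferase reporter and constitutively active GLP-1R were seeded, incubated 12 h, then exposed to compounds for 24 h at 37 C. Luminescence was read 12 min after detection reagent; inverse agonists lower signal.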
Further: nearly all actives have a fitted effect of over 55% in size.
On the % scale 0 is the no-effect control and ±100 the full control effect; potency means the concentration at half of the fitted maximal effect; tags describe the fitted curve by direction and shape.

Row | SMILES | Potency | activity change, negative = inhibition
1 | Cc1ccc(C(=O)NNC(=O)c2cc(OCC(F)(F)F)ccc2OCC(F)(F)F)cc1 | inconclusive [inhibitor, single point] | –
2 | COC(=O)[C@]1(CC(C)C)N[C@H](c2ccc(SC3CCCCC3)cc2)[C@@H]2C(=O)N(C)C(=O)[C@@H]21 | inconclusive [inhibitor, partial curve, poor fit] | –
3 | COC(=O)c1scc(-c2ccc(C)cc2)c1S(=O)(=O)N1CCN(c2cccc(Cl)c2)CC1 | inconclusive [inhibitor, partial curve, poor fit] | –
4 | COc1ccccc1CNS(=O)(=O)c1cc(C(=O)NCC2CCCO2)c(Cl)cc1Cl (stereo unspecified) | inconclusive [inhibitor, partial curve] | –
5 | COC(=O)c1cc(C(=O)NC(C)(C)CC(C)(C)C)cc([N+](=O)[O-])c1 | inconclusive [inhibitor, single point] | –
6 | CCc1ccccc1Nc1sc(C(=O)c2ccccc2)c(N)c1S(=O)(=O)c1ccccc1 | inconclusive [inhibitor, single point] | –
7 | CN(C)CCCNc1oc(-c2ccccc2)nc1C#N | inconclusive [inhibitor, partial curve, poor fit] | –
8 | CCCCn1c(N)c(N(CCOC)C(=O)c2cc(-c3ccco3)nc3ccccc23)c(=O)[nH]c1=O | inactive | –
9 | COc1cc(C)c(Br)cc1S(=O)(=O)NCc1cccs1 | inconclusive [inhibitor, single point] | –
10 | CC1CCc2sc(C(=O)NCC(C)(C)N3CCOCC3)cc2C1 (stereo unspecified) | inconclusive [inhibitor, partial curve, poor fit] | –
11 | N#CCCN(C(=O)COC(=O)C1=COCCO1)c1ccc(F)cc1 | inactive | –
12 | CCOc1c(Br)cc(CNc2ccc(N3CCOCC3)cc2)cc1OC | inconclusive [inhibitor, single point] | –
13 | O=C(CNC(=S)NC(=O)C1CCCCC1)c1ccccc1 | inactive | –
14 | Cc1cc(/C=N/NC(=O)c2cccc([N+](=O)[O-])c2)c(C)n1-c1ccc(Cl)cc1Cl | inconclusive [inhibitor, partial curve, poor fit] | –
15 | CCOC(=O)C1=C(N)Oc2cc(O)ccc2C1c1cccc([N+](=O)[O-])c1 (stereo unspecified) | inconclusive [inhibitor, partial curve, poor fit] | –
16 | O=S(=O)(Nc1ccccc1N1CCCCC1)c1ccc(Cl)s1 | active: 10 µM | –
17 | CCCCN(CCCC)C(=O)c1c[nH]c2ccc(S(=O)(=O)Nc3cccc(Cl)c3C)cc2c1=O | inconclusive [inhibitor, partial curve, poor fit] | –
18 | COCCn1c(SCC(=O)NNC(=O)c2ccccc2)nc2ccccc2c1=O | inactive | –
19 | CCc1cccc(NC(=O)C2CCN(c3ncnc4sc(C)c(C)c34)CC2)c1 | inconclusive [inhibitor, partial curve, poor fit] | –
20 | CN(CC(=O)Nc1ccc(Cl)cc1)CC(=O)Nc1cccc(Br)c1 | inconclusive [inhibitor, partial curve, poor fit] | –
21 | O=C(Nc1ccccc1)C1CCCN(C(=O)c2ccc(Cl)cc2)C1 (stereo unspecified) | inconclusive [inhibitor, single point] | –

Row | SMILES | Potency | activity change, negative = inhibition
22 | NC(=O)c1c(-c2ccc(Cl)cc2Cl)csc1NC(=O)Cc1ccccc1 | inconclusive [inhibitor, full curve] | –
23 | O=C(Nc1c2c(nn1-c1ccc(Cl)cc1)CS(=O)(=O)C2)c1ccc(Br)cc1 | inconclusive [inhibitor, single point] | –
24 | O=C(c1ccc(S(=O)(=O)c2ccc(F)cc2)c([N+](=O)[O-])c1)N1CCCCCC1 | inconclusive [inhibitor, partial curve, poor fit] | –
25 | Cc1cc(O)c(CN2CCN(c3ccccc3)CC2)c2oc(=O)cc(C)c12 | inactive | –
26 | CCCn1c(SC(C)C(=O)N2CCOCC2)nc2ccc(Br)cc2c1=O (stereo unspecified) | inconclusive [inhibitor, single point] | –
27 | CCCSCCCNC(=O)Cn1c(-c2cccs2)cc2ccccc21 | inconclusive [inhibitor, partial curve, poor fit] | –
28 | CCOc1ccc(CO[C@@H]2O[C@H](CO)[C@@H](O)[C@H](O)[C@H]2NC(C)=O)cc1OC | inactive | –
29 | CCc1cccc(NC(=O)C2CCN(S(=O)(=O)c3ccc4c(c3)NC(=O)CO4)CC2)c1 | inconclusive [inhibitor, partial curve, poor fit] | –
30 | O=c1c2ccccc2cnn1-c1nc2ccccc2[nH]1 | inconclusive [inhibitor, full curve, poor fit] | –
31 | NCC12CC3CC(C1)CC(c1ccc(Cl)cc1)(C3)C2 | inconclusive [inhibitor, partial curve, poor fit] | –
32 | COc1ccc(CN(C)C(=O)c2cccc(C(=O)N(C)Cc3ccc(OC)cc3)c2)cc1 | inconclusive [inhibitor, partial curve, poor fit] | –
33 | CN1CCS/C1=C/C=C1/SC(=S)N(Cc2ccccc2)C1=O | inconclusive [inhibitor, partial curve, poor fit] | –
34 | COC(=O)CN1C(C(=O)c2ccccc2)=C(OC(=O)c2ccccc2)c2ccccc2S1(=O)=O | inconclusive [inhibitor, single point] | –
35 | CCCN1C(C(=O)c2ccccc2)=C(OC(=O)COc2ccc(C)cc2)c2ccccc2S1(=O)=O | inconclusive [inhibitor, single point] | –
36 | COc1ccc(OC)c(NC(=O)C2(C)CCN2Cc2ccccc2Cl)c1 (stereo unspecified) | inconclusive [inhibitor, single point] | –
37 | CN(C)c1ccc(CNCCC(Cc2ccccc2)c2ccco2)cc1 (stereo unspecified) | inconclusive [inhibitor, partial curve, poor fit] | –
38 | CCOC(=O)c1c(C)[nH]c(-c2csc(C)n2)c1C | – | inactive: -0.691% [at 7.66 µM]
39 | COc1ccc(/C=C2\SC(=Nc3ccccc3OC)NC2=O)cc1 | inconclusive [inhibitor, single point] | –
40 | CCOc1ccc(N(CC)C(=O)Cn2cnc3sc(C)c(S(=O)(=O)N4CCN(c5ncccn5)CC4)c3c2=O)cc1 | inactive | –
41 | CC(CN1CCCC1)OC(=O)c1ccc(Cl)cc1Cl (stereo unspecified) | inactive | –
42 | Cc1cc(NS(=O)(=O)c2ccc(NC(=O)COc3cc(C)c(Br)cc3C(C)C)cc2)no1 | inconclusive [inhibitor, single point] | –

Row | SMILES | Potency | activity change, negative = inhibition
43 | CC(C)CCNC(=O)c1ccc2nc(Cc3ccccc3)oc2c1 | inconclusive [inhibitor, single point] | –
44 | CCOC(=O)c1ccc(Nc2cc(C)nc(-c3ccccc3O)n2)cc1 | inconclusive [inhibitor, partial curve] | –
45 | CNC(=O)c1ccc(Nc2nc(-c3ccccc3)nc3ccccc23)cc1 | inconclusive [inhibitor, partial curve, poor fit] | –
46 | CCCC1Oc2ccccc2C(=O)N(CC(=O)c2ccc3c(c2)OCCO3)C1=O (stereo unspecified) | inconclusive [inhibitor, single point] | –
47 | O=C(NCC(c1cccnc1)N1CCc2ccccc21)c1ccc(Cl)cc1 (stereo unspecified) | inconclusive [inhibitor, single point] | –
48 | Cc1ccc(-n2ncc(C(=O)NCCN3CCC(Cc4ccccc4)CC3)c2C2CCN(C(=O)OC(C)(C)C)CC2)cc1 | active: 10 µM | –
49 | O=C(c1ccc2ccccc2c1)N1CCN(Cc2ccccc2)CC1 | inconclusive [inhibitor, single point] | –
50 | Fc1ccc(-c2nc(-c3cccs3)[nH]c2-c2ccc(F)cc2)cc1 | inconclusive [inhibitor, partial curve, poor fit] | –
51 | CCCCCCCNC(=O)C1(CC2CC(c3ccccc3)=NO2)CCN(C(=O)c2ccccc2)CC1 (stereo unspecified) | inconclusive [inhibitor, single point] | –
52 | Cc1ccc(/C(N)=N/OC(=O)c2ccc(C)cc2Cl)cc1 | inconclusive [inhibitor, full curve, poor fit] | –
53 | CC1=NN(C(=O)CCc2ccccc2)C(c2ccccc2)C1 (stereo unspecified) | inconclusive [inhibitor, partial curve, poor fit] | –
54 | Cc1ccc(CCNC(=O)c2ccc3c(c2)N(Cc2cccc(F)c2)C(=O)c2ccccc2S3)cc1 | inconclusive [inhibitor, partial curve, poor fit] | –
55 | O=C(Cc1cccc2ccccc12)NCCC1=CCCCC1 | inconclusive [inhibitor, single point] | –
56 | COc1cccc2cc(C(=O)Nc3ccc(C)cc3)c(=O)oc12 | inactive | –
57 | O=C(Nc1ccc(OC(F)(F)F)cc1)N1CCN(c2ccnc3cc(Cl)ccc23)CC1 | inconclusive [inhibitor, full curve, poor fit] | –
58 | CCOc1ccc(NC2c3ccccc3C(=O)N2Cc2ccc3c(c2)OCO3)cc1 (stereo unspecified) | inconclusive [inhibitor, single point] | –
59 | O=[N+]([O-])c1ccc(O)c(-c2cc(C(F)(F)F)nc(-c3ccccc3)n2)c1 | inconclusive [inhibitor, full curve, poor fit] | –
60 | CN(C)CCNc1ccc(CO)c2oc3ccc(O)cc3c(=O)c12 | active: 10 µM | –
61 | N#Cc1c(N)n(C2CCCCC2)c2nc3ccccc3nc12 | inactive | –
